# In article PMC4336329 (PLoS ONE, 2015):
# Hit rate of the full screen: of about 310,000 compounds, about 2,200 (0.71%) showed an effect of 50% or more. The effect is printed as a negative number. The list shows a part of the results.
# Biological target: human ether-à-go-go-related gene (hERG) potassium channel (human, UniProt Q12809)
# Test: primary screen, population patch clamp on CHO cells stably expressing hERG
# Chain of human ether-à-go-go-related gene (hERG) potassium channel (Q12809 whole entry, looked up): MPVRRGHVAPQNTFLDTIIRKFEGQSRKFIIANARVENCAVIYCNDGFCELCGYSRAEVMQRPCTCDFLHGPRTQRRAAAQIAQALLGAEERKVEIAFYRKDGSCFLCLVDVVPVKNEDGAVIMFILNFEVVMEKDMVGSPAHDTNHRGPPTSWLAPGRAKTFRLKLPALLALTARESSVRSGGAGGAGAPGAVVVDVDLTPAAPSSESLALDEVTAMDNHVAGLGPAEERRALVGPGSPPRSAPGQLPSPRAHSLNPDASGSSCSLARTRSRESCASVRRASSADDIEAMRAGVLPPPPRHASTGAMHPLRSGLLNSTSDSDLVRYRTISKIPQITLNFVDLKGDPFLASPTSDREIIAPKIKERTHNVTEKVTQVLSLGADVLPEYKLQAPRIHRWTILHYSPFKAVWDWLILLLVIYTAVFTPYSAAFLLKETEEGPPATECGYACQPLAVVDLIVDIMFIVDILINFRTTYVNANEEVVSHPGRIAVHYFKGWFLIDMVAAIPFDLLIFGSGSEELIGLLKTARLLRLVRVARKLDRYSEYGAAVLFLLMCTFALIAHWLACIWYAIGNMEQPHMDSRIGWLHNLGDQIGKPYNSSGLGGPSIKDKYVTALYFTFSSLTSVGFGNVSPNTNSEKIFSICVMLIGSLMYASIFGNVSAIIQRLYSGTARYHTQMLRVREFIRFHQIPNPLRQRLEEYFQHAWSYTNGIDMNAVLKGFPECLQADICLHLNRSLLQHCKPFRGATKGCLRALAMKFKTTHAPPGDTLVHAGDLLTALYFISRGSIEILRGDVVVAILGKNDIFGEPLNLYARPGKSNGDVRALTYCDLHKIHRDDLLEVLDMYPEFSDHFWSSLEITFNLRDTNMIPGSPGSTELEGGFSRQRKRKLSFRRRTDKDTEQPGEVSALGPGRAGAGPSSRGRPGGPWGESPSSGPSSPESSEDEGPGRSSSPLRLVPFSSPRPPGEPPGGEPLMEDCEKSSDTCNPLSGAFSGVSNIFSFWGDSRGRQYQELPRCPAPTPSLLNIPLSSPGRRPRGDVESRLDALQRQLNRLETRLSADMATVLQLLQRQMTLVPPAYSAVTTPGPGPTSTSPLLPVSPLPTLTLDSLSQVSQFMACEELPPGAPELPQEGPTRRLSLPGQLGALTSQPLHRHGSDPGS
row,Structure (SMILES),"hERG current change (%, negative = inhibition) at 1uM"
1,Cc1ccccc1NC(=O)Cn1c(O)c(N=NC(=O)c2ccccc2O)c2ccccc21,14.1%
2,CCN(CC(=O)Nc1c(F)cccc1F)C(=O)c1cc(S(=O)(=O)N(C)C)ccc1N1CCCC1,8.66%
3,O=C(Nc1ccc(O)cc1C(=O)O)c1ccc2c(c1)C(=O)N(Cc1ccco1)C2=O,-7.57%
4,c1cncc(CNc2ncnc3sccc23)c1,14%
5,CCCn1c2c(c(=N)c3c1CCC3)CCCC2.I,6.36%
6,Cc1ccc(-c2cc(C(F)(F)F)nn2-c2ccc(S(N)(=O)=O)cc2)cc1,13.8%
7,CC12CCC(=O)N1C(C(=O)NCCc1ccc(F)cc1)CS2 (stereo not shown),15.5%
8,CCC(CC)c1nnc(NC(=O)CSCC(=O)Nc2cc(C)on2)s1,12.8%
9,CC(Oc1ccc(Br)cc1Br)C(=O)Nc1cccnc1Cl (stereo not shown),13.7%
10,O=[N+]([O-])c1cccc(CSC2=NCCN2S(=O)(=O)c2ccccc2)c1,7.97%
11,O=C(CSc1nnc(COc2ccc(Cl)cc2)n1Cc1ccco1)c1ccccc1F,11.8%
12,O=C(CSc1ncnc2c1oc1ccccc12)NCc1ccc(F)cc1,13.4%
13,COc1ccc(/C=C2\Oc3cc(OCC(=O)N4CCC(C(=O)O)CC4)ccc3C2=O)c(OC)c1OC,11.5%
14,CCS(=O)(=O)c1ccc(O)c(NC(=O)COc2ccc(C)cc2)c1,5.5%
15,COc1ccccc1N1CCN(C(=S)Nc2ccc3nc(N4CCOCC4)cc(C)c3c2)CC1,2.41%
16,CCCc1[nH]n(-c2ccc(F)cc2)c(=O)c1C=Nc1cccc(F)c1,16.9%
17,Nc1ccc(S(=O)(=O)Nc2nccs2)cc1,14.4%
18,CN(C)CCC(Oc1ccccc1OCc1ccccc1)c1ccccc1.O=C(O)C(=O)O (stereo not shown),-7.34%
19,COc1ccc(NC(C)=O)cc1NC(=O)c1cccc(C(F)(F)F)c1,11.4%
20,COC(=O)C1=C(C)N(c2ccc(F)cc2)C(=O)C1,-7.72%
21,Cl.Nc1cccc(Oc2c(F)c(F)c(Oc3cccc(N)c3)c(F)c2F)c1,13.1%
22,O=C(CCS(=O)(=O)c1ccccc1)Nc1ccccc1N1CCOCC1,-1.59%

row,Structure (SMILES),"hERG current change (%, negative = inhibition) at 1uM"
1,CC1CC(C)CN(C(=O)C(C)N(C)CC(=O)Nc2ccc(F)cc2)C1 (stereo not shown),1.53%
2,Cl.Oc1ccccc1Nc1nc(NCC2CCCO2)c2ccccc2n1 (stereo not shown),-8.48%
3,Cc1cc(=O)[nH]c2ccc(S(=O)(=O)Nc3ccc(O)cc3)cc12,18.2%
4,CCc1ccc(NC(=O)CSc2ccc(-c3cccnc3)nn2)cc1,-1.22%
5,CCOC(=O)C1(Cc2ccccc2C(F)(F)F)CCN(C2CCC2)CC1,-20.3%
6,COc1ccc(NC(=O)c2ccc(CN3CCc4ccccc4C3)cc2)cc1OC,15.6%
7,O=c1c(-c2cccc(Cl)c2)c[nH]n1-c1ccccc1,17.6%
8,CC(=O)c1sc(NC(=O)c2cc(-c3ccccc3)nn2-c2ccccc2)nc1C,9.74%
9,Cc1c(Cl)cccc1N1C(=O)C(N2C(=O)c3cccc([N+](=O)[O-])c3C2=O)C1c1cccs1 (stereo not shown),8.07%
10,Cc1ccc(C(=O)COC(=O)c2cc(=O)[nH]c3ccccc23)cc1C,15.6%
11,CN(C)c1ccnc2sc3c(=O)n(Cc4ccccc4)cnc3c12,-19.5%
12,CC(C)c1c(O)nc(SCC(=O)Nc2ccc3c(c2)CCC3)[nH]c1=O,4.86%
13,COc1ccc(-c2nnn(CC(=O)N(CC3CCCO3)C(C(=O)NC(C)(C)C)c3ccco3)n2)cc1OC (stereo not shown),12.7%
14,O=C1c2ccccc2N2C(=O)c3ccccc3C2N1Cc1ccccc1 (stereo not shown),-2.03%
15,CN1C(=O)/C(=C/c2ccc(-c3ccccc3[N+](=O)[O-])o2)SC1=Nc1ccc(Cl)c(C(=O)O)c1,13.2%
16,COc1ccc(CC(=O)NCc2cccs2)cc1,3.95%
17,Cc1ccc(C(=O)N2CCc3ccccc3C2)cc1S(=O)(=O)N1CCOCC1,8.77%
18,CC1CCN(C(=O)Cn2c(=O)n(CCCC(=O)NCc3ccco3)c(=O)c3sccc32)CC1,6.32%
19,Cc1cc(C)c2cc(C#N)c(NCCCNC(=O)CCC(=O)O)nc2c1,9.04%
20,O=C(O)/C(=C\c1ccc(Cl)cc1)c1ccc(S(=O)(=O)N2CCCC2)s1,-6.96%
21,O=C(COc1ccccc1)NC(=S)Nc1ccc2c3c(cccc13)CC2,8.69%
22,CN(c1ccccc1C(=O)Nc1ccc2c(c1)OCCO2)S(C)(=O)=O,-6.61%

row,Structure (SMILES),"hERG current change (%, negative = inhibition) at 1uM"
1,O=C1Nc2ccccc2C1(O)C/C(=N/O)c1ccccc1 (stereo not shown),13.5%
2,CSCCC(NC(=O)c1ccccc1Br)C(=O)NCCCn1nc(C)cc1C (stereo not shown),1.59%
3,CCOC(=O)C1=C(COC(=O)c2c(OC)cccc2OC)NC(=O)NC1C (stereo not shown),8.27%
4,Cc1ccc(-c2cc(C(F)(F)F)n3ncc(C(=O)NCc4ccco4)c3n2)cc1,-7.58%
5,O=C(O)CSc1nnc(-c2ccncc2)n1CCc1ccccc1,9.45%
6,O=C(NCCN1CCNC1=O)C1CCC(=O)N(Cc2ccccc2F)C1 (stereo not shown),-1.3%
7,CC1=C(C(=O)Nc2cccc(C(=O)NC3CCCCC3C)c2)SCCO1 (stereo not shown),4.75%
8,COCCNC(=O)C1CCN(S(=O)(=O)N2CCC3(CC2)OCCO3)CC1,15.6%
9,O=C(CC(c1ccccc1)c1ccco1)N1CCOCC1 (stereo not shown),3.02%
10,CCOC(=O)c1c(CSc2ccc(CC)cc2)oc2ccc(O)c(CN(C)C)c12.Cl,8.79%
11,O=C(Cn1c(=O)cnc2ccccc21)N1CCN(S(=O)(=O)c2ccccc2Br)CC1,36.9%
12,CC(=O)Nc1ccc(-c2csc(NC(=O)CCCc3cccs3)n2)cc1,8.68%
13,COc1cc([C@H]2[C@@H]3CCCC[C@]3(O)CCN2CC(=O)Nc2ccc(C)cc2C)ccc1O,12.1%
14,Cc1[nH]c2ccccc2c1C(=O)CSc1nncn1C,8.79%
15,O=C(O)CCCC(=O)Nc1ccc(N=Nc2ccccc2)cc1,10.8%
16,COc1ccccc1OCc1ccc(C(=O)N/N=C/c2ccco2)cc1,12.6%
17,O=C(NC(=S)Nc1ccc(Cl)c(C(=O)O)c1)c1ccc(OCc2ccccc2)cc1,12.5%
18,COCCN(C(=O)COC(=O)Cc1cccc2ccccc12)c1c(N)n(Cc2ccccc2)c(=O)[nH]c1=O,-0.428%
19,Cc1ccc(Nc2nc(N)[nH]c(=O)c2N=O)cc1,11.7%
20,CC1=CC=CN2C1=NC(=O)CC2(C)C(=O)N(CC(=O)NC1CCCC1)c1ccccc1C (stereo not shown),10.2%
21,CC(C)C(=O)NNC(=O)CSc1nnnn1C(C)C,10.8%
22,CCOC(=O)c1ccc(NC(=O)c2cc(F)c(F)cc2Cl)cc1,-2.39%

row,Structure (SMILES),"hERG current change (%, negative = inhibition) at 1uM"
1,COCCN(C(=O)C1CC1)c1nnc(-c2ccc(C)cc2)s1,16.4%
2,CC1Cc2ccccc2N1C(=O)COC(=O)c1ccc(Cl)c(S(=O)(=O)N2CCOCC2)c1 (stereo not shown),5.86%
3,O=C(CN1C(=O)C2C3c4ccccc4C(c4ccccc43)C2C1=O)Nc1ccccc1C(=O)O (stereo not shown),10.3%
4,Cc1nn(C)c(C)c1/C=C/C(=O)c1ccc(Cl)cc1Cl,9.04%
5,O=C(Nc1ccc(Cl)cc1)c1ccc(S(=O)(=O)N2CCOCC2)cc1,11%
6,OCCCn1c(C2CCCN2c2nc(-c3ccc(F)cc3)cs2)nc2cc(C(F)(F)F)ccc21 (stereo not shown),2.52%
7,Cc1ccc(S(=O)(=O)CC(=O)Nc2nnc(C)s2)cc1,2.1%
8,Cc1ccccc1NC(=O)Cc1nc(COC(=O)CNS(=O)(=O)c2cccc(Br)c2)cs1,-6.7%
9,CCC(C)Nc1nc(N)c([N+](=O)[O-])c(Nc2ccccc2OC)n1 (stereo not shown),7.54%
10,COc1ccc(/C=C2\SC(=S)N(CCC(=O)NC3=NCCS3)C2=O)cc1OC,-1.3%
11,C/C(=N\NC(=O)c1nnn(-c2nonc2N)c1CN(C)c1ccccc1)c1ccccc1O,14.6%
12,N/C(=N\S(=O)(=O)c1ccc(Cl)s1)c1ccccc1,0.25%
13,COc1ccccc1NC(=S)NC(NC(=O)CC(C)C)C(Cl)(Cl)Cl (stereo not shown),17%
14,O=C(Nc1ccc(OCC(=O)N2CCOCC2)cc1)c1ccccc1F,10.9%
15,C/C(=N\NC(=O)c1cccs1)C(C)(C)C,12.8%
16,CN(CC(=O)Nc1ccccc1C(F)(F)F)C(=O)C1CCN(S(=O)(=O)c2ccc3c(c2)OCCO3)CC1,0.631%
17,COc1ccccc1-c1coc2c(CN3CCOCC3)c(O)ccc2c1=O,8.86%
18,O=c1c2ccccc2nc(/C=C/c2ccccc2)n1CCc1ccccc1,-4.92%
19,COc1ccc(N(CC(=O)NC2CCCCC2)C(=O)CNC(=O)c2cccs2)cc1,12.8%
